In ChEMBL document CHEMBL4888484, “Replenishing the malaria drug discovery pipeline: Screening and hit evaluation of the MMV Hit Generation Library 1 (HGL1) against asexual blood stage Plasmodium falciparum ,using a nano luciferase reporter read-out” (2022):
Screen size: about 4,800 compounds; about 420 (8.8%) showed an effect of 50% or more. This is one part of the list.

system: Plasmodium falciparum; experiment: Confirmatory screen in NF54 nanoGlo assay, in single point, at 2uM, 72h; assay type: functional, Erythrocyte; settings: timepoint 72 hour

Row | Structure (SMILES) | % Inhibition [%]
1 | CCn1cc(CN2C(=O)C3CCCCC3C2=O)c(C)n1 (configuration not stated) | -3
2 | CN1CC[C@H](CN(C)Cc2ccc3cc(O)ccc3c2)C1 | 9
3 | CC(C)(CNC(=O)[C@@H]1CCC(=O)N1)C1=CCCC1 | 7
4 | Clc1cccc(N2CCN(Cc3nc(-c4ccco4)no3)CC2)c1 | -6
5 | C=C1CC2C(CC1OC(=O)NC(=O)CN1CCCCC1)C2(C)C (configuration not stated) | -13
6 | Cc1sc2nc(-c3ccccn3)nc(NCC(=O)N3CCC(O)CC3)c2c1-c1ccccc1 | 23
7 | Cc1[nH]nc2c1C1(CCCCC1)CC(=O)N2 | -13
8 | c1ccc(COc2nsnc2N2CCOCC2)cc1 | -1
9 | Cc1c(Cl)c(-c2nnc(-c3cccc(C(F)(F)F)c3)o2)nn1C | -21
10 | CCC(=O)OCCN1CCN(CCN(C(=O)CC)c2ccc(C3CCCC3)cc2)CC1 | 3
11 | O=C(c1csc(C(=O)N2CCCC2)n1)N1CCN(Cc2ccccc2)CC1 | -19
12 | Cc1[nH]c2ccccc2c1C1CCN(C(=O)c2ccccc2Br)CC1 | 1
13 | CN(CC(C)(CO)CO)c1ncc(-c2ccccc2)s1 | -2
14 | O=C(Cc1ccccc1F)N1CC(n2cnnc2C2CCOCC2)C1 | -14
15 | CCCN1CCC(NCc2ccc(-c3cccc(Cl)c3Cl)o2)CC1 | 65
16 | Cc1cccc(-n2c(=O)c3sccc3n(CC(=O)NCc3ccc(F)cc3F)c2=O)c1C | 2
17 | CC(=O)Nc1ccccc1N(S(=O)(=O)c1ccc2ccccc2c1)S(=O)(=O)c1ccc2ccccc2c1 | 0
18 | CCc1cc(N2CCC(N3C(=O)[C@H]4CCCN4C3=O)CC2)ncn1 | 1
19 | O=C(c1ccoc1)N1CCC[C@H](C(=O)N2CCN(C(c3ccccc3)c3ccccc3)CC2)C1 | -1
20 | Cc1nn(C)c(C)c1-c1cc(C(=O)Nc2cc(F)ccc2F)c2c(C)nn(C)c2n1 | -5
21 | Cc1ccccc1-c1nc2cc(NS(=O)(=O)c3ccccc3)ccc2o1 | 2
22 | COc1ccc2oc(-c3ccc(CNC(=O)c4ccc(C)cc4)cc3)nc2c1 | -3
23 | C[C@@H](CNc1ncc(C(=O)N2CCOCC2)cc1Cl)c1nncn1C | -12
24 | O=C(NCc1ccccc1F)C1CCN(c2cncnc2N2CCCC2)CC1 | 33
25 | Cc1cnc(CC[C@H]2CCCN2C(=O)CCn2ccnc2)n1C | -2
26 | Fc1cccc(Br)c1C1CC(c2cccnc2)Nc2ncnn21 (configuration not stated) | -9

Row | Structure (SMILES) | % Inhibition [%]
27 | O=S(=O)(c1ccccc1)c1cnc2c(Br)c(-c3ccccc3)nn2c1-c1ccccc1 | -17
28 | CCC[C@H](C)c1cc(NS(=O)(=O)c2cnn(CC)c2)[nH]n1 | 5
29 | COc1ccccc1-c1n[nH]cc1CN1CC(=O)NCC12CCCC2 | -8
30 | CCCOc1cccc2c(NC3CCN(CCOC)CC3)ccnc12 | 22
31 | CN1c2ccccc2C(=O)N[C@@H]1c1ccccc1OCc1ccccc1 | -3
32 | O=C(OCc1nccn1Cc1ccccc1)c1cccc2cc[nH]c12 | 3
33 | CC(C)(C)OC(=O)N1C[C@@H](O)CC1=O | -11
34 | CCOC(=O)N1CCc2c(nc(-c3ccc(F)cc3)n(CC(=O)Nc3c(C)cc(C)cc3C)c2=O)C1 | 6
35 | Cc1ccc(-c2nn3nc(COc4cccc5c4OC(C)(C)C5)nc3s2)cc1 | 2
36 | Cc1ccc(O)c(CNCC2(c3ccccc3Cl)CCOCC2)n1 | 99
37 | CCCn1c(C)cnc1C1CN(S(=O)(=O)c2ccc(C)c(F)c2)C1 | -6
38 | CS(=O)(=O)CC1(CON=C(N)c2cccnc2)CC1 | 1
39 | C=CCNC(=O)CN1CCN(CC(=O)N(Cc2ccccc2)[C@@H](C)C2CC2)CC1 | 3
40 | Cc1cnc(Cc2ccccc2)n1CCNC(=O)c1cnn(C)c1 | 0
41 | COc1cc(N2CCn3c(nc4ccccc43)C2)ccc1NC(=O)c1ccc(C)cc1 | 4
42 | Cc1ccc2nc(C3CC3)cc(C(=O)N3C[C@@H](O)C[C@H]3CO)c2c1 | -4
43 | Cn1cc(-c2noc(-c3cccc(C#N)c3)n2)ccc1=O | 3
44 | CCOC(=O)c1nc(-c2ccc(N3CCCCC3)nc2)no1 | 6
45 | CCCN(Cc1nnc(-c2ccccc2)o1)S(=O)(=O)c1cnn(C(F)F)c1C | -10
46 | CC(C)(C(=O)Nc1nccs1)c1cccnc1 | -2
47 | Cc1ccc(C)n1-c1ccc(Cl)c(C(=O)NC[C@H]2COCCO2)c1 | -4
48 | Cc1cccc(C)c1OCC(=O)Nc1ccc(-c2nc3cc4ccccc4cc3[nH]2)cc1 | 10
49 | O=C(NCCc1ccccc1)N1CC[C@@]2(C1)Nc1cccnc1N=C2NC1CCCC1 | -8
50 | CCOc1ccc(-n2c(CN3CCN(C(=O)c4ccco4)CC3)nc3ccccc3c2=O)cc1 | 3
51 | C#CCNC(=O)[C@H](C#N)c1nc(C)c(C)s1 | 3
52 | CCOc1ccc(NC(=O)N(Cc2cn(C)c3ccccc23)C2CCCCC2)cc1 | -6

Row | Structure (SMILES) | % Inhibition [%]
53 | O=C(CNC(=O)COc1ccccc1)NCC1(O)CCCCCC1 | -5
54 | CC(C)N1CC[C@H](c2nnc3n2CCN(S(=O)(=O)c2ccccc2Cl)C3)C1 | -3
55 | Cc1ccc(Cn2ccn3nc(-c4ccc5c(c4)OCO5)cc3c2=O)cc1C | -9
56 | Cc1nc2cc(OCc3ccccc3)ccc2n1C | 2
57 | COc1ccc2cc3n(c2c1)C[C@](C(=O)NC1CCCCCC1)(c1ccccc1)N(Cc1cccc(C)c1)C3=O | -15
58 | CCC(C)(C)NCC(=O)Nc1cc(F)ccc1F | -13
59 | CN(C)S(=O)(=O)N(CCN1CCCC1)[C@H]1CCN(C(=O)CCCc2ccccc2)C1 | 1
60 | O=C(Nc1ccccc1)c1cc(C(=O)Nc2ccccc2)cc(C(=O)Nc2ccccc2C(=O)O)c1 | 15
61 | COc1cccc(N2CCN(C3=NC(=O)[C@@H](C#N)C4(CCCC4)N3)CC2)c1 | 2
62 | CN1CCN(Cc2cc3cc4c(cc3nc2-c2ccc(Cl)cc2)OCO4)CC1=O | 53
63 | COC(=O)Nc1ccc(Cl)cc1F | 4
64 | COc1ccc(CN(c2ccccc2)S(=O)(=O)c2ccc3nncn3c2)cc1 | -3
65 | CCc1ccc2c(c1)c(-c1ccc(Cl)cc1)c(C(=O)N1CCN(c3cccc(Cl)c3)CC1)n2C | -17
66 | Cc1cccc(NC(=O)CS(=O)(=O)Cc2cc(Cl)cc3c2OCOC3)c1C | -10
67 | Cc1cccnc1C(=O)N1CC(n2cnnc2[C@@H]2CCCO2)C1 | -2
68 | O=C(Nc1ccccc1)C1=NN(CC(=O)N2CCCCC2)C(=O)CC1 | -9
69 | Cc1ccccc1NC(=O)c1cnn2c3c(cnc12)CCCCCC3 | 2
70 | Cc1nn(C)cc1S(=O)(=O)N1CCC[C@@H]1CCc1ccccn1 | -12
71 | COc1ccc(CN2C(=O)c3cc4ccc(OC)cc4n3C[C@]2(C(=O)NC2CCCCCCC2)c2ccccc2)cc1 | -8
72 | COc1cccc(N2CCN(C(=O)c3cn4cc(-c5ccc(Cl)cc5)ccc4n3)CC2)c1 | 0
73 | O=C(Nc1ccsc1C(=O)NC1CCCCC1)c1cnccn1 | 4
74 | Cc1cc(C(=O)NCCCS(N)(=O)=O)c(Cl)cc1F | -10
75 | O=c1[nH]c2cc(Cl)c(S(=O)(=O)Cl)cc2[nH]1 | 1
76 | NC(=O)c1cccc(CNc2ccc(-n3cncn3)c(Cl)c2)c1 | -4
77 | O=C(NC1CCCNC1=O)NC1CCCC1c1ccc(Cl)cc1 (configuration not stated) | 3
78 | CC(C)c1ccc(N2CCN(C(=O)c3ccc(C(F)(F)F)cc3)[C@@H](C)C2=O)cc1 | -1

Row | Structure (SMILES) | % Inhibition [%]
79 | Cc1nc2c(c(=O)[nH]1)NC(=O)[C@H](CC(C)C)N2 | -6
80 | CCCCCNC(=O)NCc1ncoc1C | -1
81 | CC(C)(C)OC(=O)N1C2CCC1CC(CC(=O)NC1CCCC1)C2 (configuration not stated) | 8
82 | N#Cc1cc(N2CCc3ccccc3C2)nc2ccccc12 | 2
83 | Cc1cc(C(=O)Nc2cc(Br)c(=O)n(C)c2)no1 | -14
84 | CN(Cc1nccn1C)C(=O)c1cc2ccccc2[nH]1 | 5
85 | C[C@@H](C1CCCC1)N1C(=O)NC(CC(F)(F)F)C1=O (some centres not stated) | -8
86 | O=C(O)[C@@H]1CN(S(=O)(=O)c2cc3ccccc3o2)c2ccccc21 | 3
87 | CCCn1c(C)cnc1C1CN(S(=O)(=O)c2cc(Cl)ccc2Cl)C1 | -7
88 | CCCN(CCC)C(=O)CCC(=O)N[C@]1(C(F)(F)F)CCc2ccccc21 | 15
89 | C#CC[C@H](OC(=O)c1nc(-c2cnn(C)c2)oc1C)C(C)(C)C | -10
90 | CCc1cc(O)nc(CN2CCCC2C(O)C(F)(F)F)n1 (configuration not stated) | -6
91 | O=S(=O)(N[C@@H](Cn1cnc2ccccc21)c1ccc(F)cc1)c1cc(F)c(F)cc1F | -2
92 | C[C@@H](CNC(=O)c1ccc(Cl)c(-n2cnc3cccnc32)c1)c1ccccc1 | -1
93 | Cc1ccc(S(=O)(=O)c2ccc3c(c2)Oc2ccccc2N3)cc1 | -10
94 | Cc1c(C)c2ccc(NC(=O)c3cc4ccccc4o3)cc2[nH]c1=O | 74
95 | COc1ccc(OC)c([C@H](C)NC(=O)N2CCS(=O)(=O)CC2)c1 | -3
96 | Cc1c([C@@H](NCc2ncccc2O)C(C)C)oc2ccccc12 | 99
97 | O=C(CCn1ccc2cc(S(=O)(=O)N3CCCCC3)ccc21)N1CCN(c2ccccc2F)CC1 | -3
98 | CC1(C)COC(=O)[C@H]1OCN1CCCC1=O | -3
99 | Cc1cc(F)c(C(=O)Nc2nc(-c3cnn(C)c3)cs2)cc1F | -9
100 | CC[C@H]1Cn2c(C(=O)NCc3cccs3)cc3c(Cl)ccc(c32)O1 | -4
101 | CN(Cc1ccccc1)C(=O)C[C@H]1CCN(C(=O)NC2CCCCC2)C1 | -5
102 | O=C(c1cc(Br)c(C(=O)N2CCCC2)cc1Br)N1CCCC1 | -13
